Screen size: about 220,000 compounds; about 5,700 (2.6%) were called active. This list was built around the results that the source calls inconclusive (neither active nor inactive); the mix of calls is not that of the screen. Calls follow the shape of the dose curve; as a rule, active = well fitted inhibition curve with a large enough effect; inconclusive = small, poorly fitted or top-dose-only effect; inactive = no such curve, though single readings can be large or run the other way. Potencies beside an inconclusive call are fits to weak or partial responses and may not hold up.
Each compound was assayed against Lysine-specific demethylase 5B (Homo sapiens) (UniProt Q9UGL1) (assay: Primary screen for KDM5B Histone Demethylases FDH-coupled qHTS). Conditions: FDH-coupled NADH fluorescence (FDH is formaldehyde dehydrogenase); series mostly up to 57.7 µM.
Sequence of UniProt Q9UGL1 (Q9UGL1 whole entry, looked up): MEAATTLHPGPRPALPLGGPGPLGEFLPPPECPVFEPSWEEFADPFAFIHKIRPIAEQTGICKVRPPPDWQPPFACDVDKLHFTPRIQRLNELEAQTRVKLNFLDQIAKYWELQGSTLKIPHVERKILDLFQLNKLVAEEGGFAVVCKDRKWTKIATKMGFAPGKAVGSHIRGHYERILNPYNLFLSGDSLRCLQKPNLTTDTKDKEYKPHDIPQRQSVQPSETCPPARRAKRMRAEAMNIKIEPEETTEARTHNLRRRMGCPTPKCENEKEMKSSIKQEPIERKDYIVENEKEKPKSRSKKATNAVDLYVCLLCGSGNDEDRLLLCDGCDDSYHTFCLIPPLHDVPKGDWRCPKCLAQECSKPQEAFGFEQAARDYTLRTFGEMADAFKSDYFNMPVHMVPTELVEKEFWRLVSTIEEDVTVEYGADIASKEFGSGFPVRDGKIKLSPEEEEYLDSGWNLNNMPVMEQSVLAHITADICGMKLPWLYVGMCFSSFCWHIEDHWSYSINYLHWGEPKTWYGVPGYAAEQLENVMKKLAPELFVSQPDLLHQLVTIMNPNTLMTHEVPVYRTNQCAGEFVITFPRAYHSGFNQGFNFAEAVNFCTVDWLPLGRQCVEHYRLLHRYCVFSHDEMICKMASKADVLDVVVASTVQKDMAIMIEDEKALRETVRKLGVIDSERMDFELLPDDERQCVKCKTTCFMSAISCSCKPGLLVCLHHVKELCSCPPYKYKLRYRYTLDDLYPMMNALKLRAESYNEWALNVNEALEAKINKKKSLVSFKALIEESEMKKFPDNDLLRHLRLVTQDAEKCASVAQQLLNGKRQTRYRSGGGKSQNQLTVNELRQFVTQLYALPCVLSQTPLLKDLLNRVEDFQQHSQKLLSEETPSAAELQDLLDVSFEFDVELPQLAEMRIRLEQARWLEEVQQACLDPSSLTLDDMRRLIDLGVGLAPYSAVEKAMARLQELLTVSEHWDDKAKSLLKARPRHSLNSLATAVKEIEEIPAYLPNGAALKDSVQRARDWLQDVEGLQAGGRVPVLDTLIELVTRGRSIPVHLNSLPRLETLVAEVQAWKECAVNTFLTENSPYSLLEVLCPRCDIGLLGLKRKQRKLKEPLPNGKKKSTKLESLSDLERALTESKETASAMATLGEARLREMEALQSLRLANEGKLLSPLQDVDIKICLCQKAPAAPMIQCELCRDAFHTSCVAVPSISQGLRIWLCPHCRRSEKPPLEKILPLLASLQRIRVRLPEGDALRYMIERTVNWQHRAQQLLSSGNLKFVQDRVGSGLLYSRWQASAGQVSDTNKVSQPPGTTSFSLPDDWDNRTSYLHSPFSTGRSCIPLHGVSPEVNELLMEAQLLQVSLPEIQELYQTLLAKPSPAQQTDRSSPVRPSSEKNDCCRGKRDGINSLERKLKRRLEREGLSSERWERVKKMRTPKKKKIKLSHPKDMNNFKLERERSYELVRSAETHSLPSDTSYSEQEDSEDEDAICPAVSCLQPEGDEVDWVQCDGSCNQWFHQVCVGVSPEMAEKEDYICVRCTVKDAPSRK
Summary of the method: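 Measured: NADH fluorescence change, 30 min, RT. System: KDM5BΔAP 200 nM final, H3K4me3 peptide, α-KG, Fe(II), ascorbate, NAD⁺ plus FDH, pH 7.5 HEPES. Compounds: titrated, 10 min pre-incubation with enzyme.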
Also: nearly all actives have a fitted effect of over 70% in size.
Potency is read from the fitted curve at half-maximal effect; tags tell the direction and shape of the fitted curve.

Row | Structure (SMILES) | Potency
1 | CCOC(=O)c1cc2c(=O)n3ccccc3nc2n(CC2CCCO2)c1=NC(=O)c1ccc(C)cc1 (centres undefined) | inconclusive: 28.2 µM [inhibitor, partial curve, poor fit]
2 | CCN1CCN(CCNC(=O)Cc2cccn2-c2ccc(C)cc2)CC1 | inactive
3 | NC(=S)N/N=C1/CCCCC1c1ccccn1 (centres undefined) | inconclusive: 14.1 µM [inhibitor, partial curve, poor fit]
4 | Nc1nccnc1C(=O)NCCC12CC3CC(CC(C3)C1)C2 | inconclusive: 2 µM [inhibitor, partial curve, poor fit]
5 | N#Cc1ccc(S(=O)(=O)N2CCN(C(=O)c3cnn(Cc4ccccc4Cl)c3)CC2)cc1 | inactive
6 | CCOc1ccc2c(n1)CCN(C(=O)CCc1ccccc1)C2 | inactive
7 | CC1(C)C=Cc2c(nc3ccccc3c2N)C1 | inconclusive: 22.4 µM [inhibitor, partial curve, poor fit]
8 | CC1CCC2(CC1)N=C(c1ccc(Cl)c(Cl)c1)C(=S)N2 (centres undefined) | inactive
9 | Cc1ccc(-c2cnc(-c3c(N)sc4c3CCCC4)s2)cc1 | inactive
10 | Cc1ccccc1OC(=O)CSc1nnc(-c2cccs2)o1 | inconclusive: 79.4 µM [inhibitor, single point]
11 | CCCCn1c(=O)n(CC(O)COc2ccc(CC)cc2)c(=O)c2c1ncn2CCOC (centres undefined) | inactive
12 | COc1cc(/C=C/c2ncc(C(=O)O)s2)cc(Cl)c1OC | inconclusive: 15.8 µM [inhibitor, partial curve, poor fit]
13 | CC(C)CNC(=O)N1CC[C@H]2C(=O)NCCCCCCN(Cc3ccncc3)[C@@H]2C1 | inconclusive: 20 µM [inhibitor, partial curve, poor fit]
14 | Cc1ccc(S(=O)(=O)NCC(c2cccnc2)S(=O)(=O)c2ccccc2)cc1 (centres undefined) | inactive
15 | COc1cc(CNCC(O)c2ccccc2)ccc1Oc1nnnn1-c1ccccc1 (centres undefined) | inactive
16 | O=C(Nc1ccc(Cl)cc1F)c1cc(S(=O)(=O)NCc2ccc3c(c2)OCO3)ccc1F | inconclusive: 28.2 µM [inhibitor, partial curve, poor fit]
17 | CCCCOC(=O)c1cccc(NC(=O)c2cc3ccccc3o2)c1 | inconclusive: 28.2 µM [inhibitor, partial curve, poor fit]
18 | CC(=O)N(Cc1ccc(Cl)cc1)c1cnccn1 | inconclusive: 31.6 µM [inhibitor, partial curve, poor fit]
19 | CC(=O)c1ccc(NS(=O)(=O)c2cc(-c3nc(-c4ccc(Cl)cc4)no3)sc2C)cc1 | inactive
20 | CCOC(=O)CSc1nc2sc3c(c2c(=O)n1-c1ccccc1)CC(C(C)C)OC3 (centres undefined) | inactive
21 | Cc1nnsc1C(=O)NC(=O)Nc1ccc(F)c(Cl)c1 | inactive
22 | O=c1cc(C(F)(F)F)[nH]c2c(OC(F)(F)F)cccc12 | inconclusive: 28.2 µM [inhibitor, single point]

Row | Structure (SMILES) | Potency
23 | O=C(NCc1ccc(Cl)cc1)c1ccn2cncc2c1 | inconclusive: 31.6 µM [inhibitor, partial curve, poor fit]
24 | COC(=O)c1ccc2c(c1)nc1n2[C@@H](CNC2CCCCC2)COC1 | inactive
25 | COc1cccc(/C=C(/C#N)c2ccc(C(F)(F)F)cn2)c1 | inactive
26 | COc1cccc(CNC(=O)c2ccc3c(c2)nc2n3CCOC2)c1 | inconclusive: 28.2 µM [inhibitor, single point]
27 | Cc1ccc(-c2nnn3c2nc(NCC(C)c2ccccc2)c2ccccc23)cc1 (centres undefined) | inconclusive: 3.16 µM [inhibitor, full curve, poor fit]
28 | O=[S+]1([O-])NC2(CCN(CC3CCCCC3)CC2)COc2ccccc21 | active: 70.8 µM
29 | F[C@@H]1CN(C2CCOCC2)C[C@@H]1OCc1nc2ccccc2[nH]1 | inconclusive: 25.1 µM [inhibitor, partial curve, poor fit]
30 | CNC(=O)c1ccc(-c2nc(CN3CCN(S(=O)(=O)c4ccc(C)c(C)c4)CC3)c(C)o2)cc1 | inconclusive: 22.4 µM [inhibitor, partial curve, poor fit]
31 | CCOc1ccc2nc(N3CCC(C(=O)NCCc4cc(OC)ccc4OC)CC3)sc2c1 | inactive
32 | Cc1coc2cc3oc(=O)c(CC(=O)N(C)CC(=O)O)c(C)c3cc12 | inconclusive: 31.6 µM [inhibitor, partial curve, poor fit]
33 | CCOc1nccn2c(-c3ccc(CN4CCNC(=O)C4)cc3)cnc12 | active: 35.5 µM
34 | Cc1cc(C(=O)N2CC[C@H](NS(=O)(=O)c3cn(C)cn3)C[C@H]2C(=O)N[C@@H](Cc2cccs2)C(N)=O)n(C)n1 | inactive
35 | O=C(Nc1cccc(-c2cn3cccnc3n2)c1)c1cc(Br)ccc1Cl | inconclusive: 2.51 µM [inhibitor, full curve, poor fit]
36 | Cc1ccc(C)c(NC(=O)Cn2c(=O)n(CC3CCCO3)c(=O)c3ccccc32)c1 (centres undefined) | inconclusive: 25.1 µM [inhibitor, partial curve, poor fit]
37 | COc1ncccc1-c1nccc2c(=O)cc(N(C)C)oc12 | active: 35.5 µM
38 | CC(NC(=O)Cc1ccc(NC(=O)N2CCSc3ncccc32)cc1)c1ccccc1 (centres undefined) | inconclusive: 22.4 µM [inhibitor, partial curve, poor fit]
39 | CC1(COc2ccc3[nH]ccc3c2)COc2ccc(C(=O)NCC3CCOCC3)cc2N1 (centres undefined) | inconclusive: 39.8 µM [inhibitor, partial curve, poor fit]
40 | Cc1cccc(OCC(=O)NC(C)C(=O)N2CCN(c3ccccn3)CC2)c1 (centres undefined) | active: 35.5 µM
41 | O=S(=O)(c1cccs1)N1CCN(c2ccnc3cc(Cl)ccc23)CC1 | inconclusive: 35.5 µM [inhibitor, partial curve, poor fit]
42 | Cc1cc(-c2ccc(S(=O)(=O)Nc3ccccc3F)s2)on1 | inconclusive: 25.1 µM [inhibitor, single point]
43 | O=C(Cc1ccccc1F)N1CC(Oc2ccc(-c3noc(-c4cccnc4)n3)cc2)C1 | inconclusive: 3.16 µM [inhibitor, partial curve, poor fit]
44 | O=C1CN(Cc2cccc(Cl)c2)CCN1c1ccc(Cl)nn1 | inconclusive: 31.6 µM [inhibitor, partial curve, poor fit]

— PubChem BioAssay AID1347165 (National Center for Advancing Translational Sciences (NCATS), 2019)
